Reference: PubChem BioAssay AID652106 (National Center for Advancing Translational Sciences (NCATS), 2013)
About 500 (0.14%) of roughly 370,000 compounds were called active. This list was built around the results that the source calls inconclusive (neither active nor inactive); the mix of calls is not that of the screen. Calls come from the whole dose curve; as a rule, active = well fitted activation curve with a large enough effect; inconclusive = small, poorly fitted or top-dose-only effect; inactive = no such curve, though single readings can be large or run the other way. No potency is given beside an inconclusive call; the fits are too rough.

Test: qHTS of alpha-syn Inhibitors; note: nearly all actives have a fitted effect of over 65% in size; for growth rescue (activation): % of control where 0% means no effect
Conditions: Yeast expressing alpha-synuclein, BacTiter-Glo, 24 h; Potency: growth rescue; growth rescue (activation): at 46.1 µM (top of the series)
Summary of the method: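 Readout is rescue of growth in alpha-synuclein-expressing yeast, so inhibitors of toxicity appear as activators. Growth after 24 hr at 30 deg C in galactose medium is quantified by luminescence.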
Potency is the fitted concentration of half-maximal effect; tags give direction and shape of the fitted curve.

SMILES	Potency	growth rescue (activation)
O=C1NC2C(=CC(O)C(O)C2O)c2cc3c(c(O)c21)OCO3 (stereo not given)	inconclusive [activator, single point]	–
N[C@@H](CCl)C(=O)O	inconclusive [activator, partial curve, poor fit]	–
CCCCn1c(O)c(C(C)=NCc2ccco2)c(=O)[nH]c1=O	inactive	–
COC(=O)C[C@]1(C(=O)OC)CN(C#N)N(c2ccc(Cl)cc2)C12c1ccccc1-c1ccccc12	inconclusive [activator, single point]	–
Cc1ccccc1-n1c(-c2ccco2)nc2ccccc2c1=O	inconclusive [activator, single point]	–
C[C@]12CC[C@H](O)C[C@@H]1CC[C@@H]1[C@@H]2CC[C@]2(C)C(=O)CC[C@@H]12	inconclusive [activator, single point]	–
c1cc2c3c(cccc3c1)CC2	inactive	–
CCCCCC(=O)N[C@@H](c1ccccc1)[C@@H](O)C(=O)O[C@H]1C[C@@]2(O)[C@@H](OC(=O)c3ccccc3)C3[C@](C)(C(=O)[C@H](O)C(=C1C)C2(C)C)[C@@H](OC1OCC(O)C(O)C1O)C[C@H]1OC[C@@]31OC(C)=O (stereo not given in full)	inactive	–
O=c1[nH]c(=O)n(Cc2ccco2)c(O)c1C=NCc1cccs1	inactive	–
CC(C)(C)c1ccc(CN2C(=O)CN=C(c3ccccc3)c3ccccc32)cc1	inconclusive [activator, single point]	–
COc1ccc2c3c1OC1C(O)C=CC4C(C2)[N+](C)(C)CCC341 (stereo not given)	inactive	–
CCOc1ccc2nc(NC(=O)c3cccn(Cc4ccccc4Cl)c3=O)sc2c1	inconclusive [activator, single point]	–
CCOc1ccccc1NC(=O)Cn1c(=O)oc2ccccc21	inconclusive [activator, single point]	–
CCCNc1nc(-c2cc(C(=O)Nc3ccccc3)on2)cc(C(C)C)n1	active: 12.6 µM	–
O=C1NCCOC(=O)[C@@H](Cc2ccc(F)cc2)CC/C=C/C[C@H]1CC(=O)N(CCO)Cc1ccccc1	inconclusive [activator, single point]	–
Cc1cc(C=C2C(=O)N(C)C(=S)N(C)C2=O)c(C)n1-c1cccnc1	inconclusive [activator, single point]	–
CCOC(=O)c1c(C)[nH]c(C)c1C(=O)C(Cc1ccccc1)N(C)C (stereo not given)	inconclusive [activator, single point]	–
O=C1/C(=C\c2ccc(Cl)c(Cl)c2)N2CCC1CC2	inconclusive [activator, single point]	–
CCCCC[C@H]1CCCCC[C@@H](O)C[C@@H](O)[C@@H](O)/C=C/C(=O)O1	inconclusive [activator, single point]	–
COc1cccc2c1C(=O)c1c(O)c3c(c(O)c1C2=O)C[C@@](O)(C(=O)CO)C[C@@H]3O[C@H]1C[C@H](N)[C@H](OC2CCCCO2)[C@H](C)O1 (stereo not given in full)	inconclusive [activator, single point]	–
Cc1ccc(/C=C2\C(=O)NC(=S)N(c3ccc(F)cc3)C2=O)s1	inconclusive [activator, single point]	–
Cc1ccc(OP(=O)(NCc2ccccc2)Oc2ccc(C)cc2)cc1	inconclusive [activator, single point]	–

SMILES	Potency	growth rescue (activation)
Cn1c(=O)oc2cc(S(=O)(=O)N3CCC(C(=O)N4CCN(c5ccc(F)cc5)CC4)CC3)ccc21	inconclusive [activator, single point]	–
OC[C@H]1O[C@@H](n2cnc3cc(Cl)c(Cl)cc32)[C@H](O)[C@@H]1O	inactive	–
COC(=O)C1=C(c2ccc(-c3ccccc3)c(F)c2)C[C@@H]2CC[C@H]1N2C(=O)NCCOc1ccccc1Cl	inconclusive [activator, single point]	–
C[C@]12CCC(=O)C=C1CC[C@@H]1[C@@H]2C(=O)C[C@]2(C)C(=O)CC[C@@H]12	inconclusive [activator, single point]	–
C[C@]12CC[C@H](O)C[C@@H]1CC[C@H]1[C@H]3CCC(=O)[C@@]3(C)CC[C@@H]12	inactive	–
O=S(=O)(NCC(c1cccnc1)N1CCN(c2ccc(F)cc2)CC1)c1ccccc1 (stereo not given)	inconclusive [activator, single point]	–
Nc1ccc(Cc2ccc(N)c(Cl)c2)cc1Cl	inconclusive [activator, single point]	–
ClC1=C(Cl)C2(Cl)C3C(Cl)C=CC3C1(Cl)C2(Cl)Cl (stereo not given)	inactive	–
Cc1cccc(CN2CCN(Cc3ccc(Cl)cc3)CC2)c1	inconclusive [activator, single point]	–
O=S(=O)(c1ccc(Cl)cc1Cl)N1CCCC1c1cccnc1 (stereo not given)	inconclusive [activator, single point]	–
COC(=O)C1(C(=O)OC)C[C@H](c2ccc(OC)cc2)N(Cc2ccccc2OC)[C@@H]1c1ccccc1	inconclusive [activator, single point]	–
O=S(=O)(c1ccc(Cl)cc1)N1CCCC1c1cccnc1 (stereo not given)	inconclusive [activator, partial curve]	–
CC(=NCc1cccnc1)c1c(O)n(Cc2ccccc2)c(=O)[nH]c1=O	inactive	–
Cc1ccc2nc(N3CCC(C(=O)N4CCC5(CC4)OCCO5)CC3)sc2c1	inactive	–
Cc1cc(C)c(S(=O)(=O)NCC2CCC(C(=O)N3CCC4(CC3)OCCO4)CC2)c(C)c1 (stereo not given)	inconclusive [activator, partial curve]	–
O=C1NC(=O)N(c2ccccc2)C(=O)/C1=C/c1ccc(Sc2ccccc2)o1	inconclusive [activator, single point]	–
C[C@H]1COC(=O)[C@H](Cc2ccc(F)cc2)CC/C=C/C[C@@H](CC(=O)N(CCO)Cc2ccccc2)C(=O)N1	inactive	–
CC(C)CN1CCN(Cc2cccc3c2OCO3)CC1CCO (stereo not given)	inconclusive [activator, full curve]	–
COc1ccc(CCNC(=O)N2c3ccccc3Sc3ccccc32)cc1	inconclusive [activator, single point]	–
Cc1cc(Br)cn2c(CC(=O)N3CCCCC3)c(-c3ccc(F)cc3)nc12	inconclusive [activator, single point]	–
CCCCCCCCN1C(=O)[C@H](CC(=O)NCCc2ccccc2OC)C[C@@]2(C(=O)OC)CCCCC=C12	inconclusive [activator, partial curve]	–
CCOC(=O)C1(CCOc2ccccc2)CCN(Cc2ccc(C)s2)CC1	inactive	–

SMILES	Potency	growth rescue (activation)
O=P(Nc1cccc(F)c1)(Oc1ccccc1F)Oc1ccccc1F	active: 17.8 µM	–
COC(=O)C1=C(c2ccc(-c3ccccc3)c(F)c2)C[C@@H]2CC[C@H]1N2C(=O)NCCc1ccccc1	inactive	–
c1ccc2ncccc2c1	inconclusive [activator, single point]	–
O=C1NCN(c2ccccc2)C12CCN(CC1COc3ccccc3O1)CC2 (stereo not given)	inactive	–
CC(=O)OCC12CC(OC(=O)CC(C)C)C(C)=CC1OC1C(O)C(OC(C)=O)C2(C)C12CO2 (stereo not given)	–	inconclusive: -50.4% [activator]
O=C(c1ccc(Cl)cc1)C1CCCN(Cc2ccc3nonc3c2)C1 (stereo not given)	inconclusive [activator, single point]	–
Oc1cccc2cccnc12	inconclusive [activator, single point]	–
COc1ccc2nc3oc(C(=O)N4CCC5(CC4)OCCO5)cc3cc2c1	inconclusive [activator, single point]	–
Nc1c(C(=O)Nc2cccc(Br)c2)sc2nc3c(cc12)N1CCC3CC1	inconclusive [activator, single point]	–
CCOc1cc(CNCCc2ccccc2F)ccc1OC	inconclusive [activator, single point]	–
CC(C)CC12CN3CCN(CC(C3)/C1=N/O)C2	inconclusive [activator, single point]	–
COC(=O)C1=C(c2ccc(Cl)c(C(F)(F)F)c2)C[C@@H]2CC[C@H]1N2C(=O)NCCO	inactive	–
CCOc1ccccc1N1C(=O)NC(=O)/C(=C/c2ccc3c4c(cccc24)CC3)C1=O	inactive	–
O=P(Nc1cccc(Cl)c1)(Oc1ccccc1)Oc1ccccc1	active: 22.4 µM	–
COC(=O)CSc1nnc(CNC(=O)c2cccc(C)c2)n1-c1ccccc1OC	inconclusive [activator, single point]	–
Cc1cccc(NP(=O)(Oc2ccccc2F)Oc2ccccc2F)c1	inconclusive [activator, single point]	–
Cc1cc(=O)oc2c(C)c(OCC(=O)N3CCN(Cc4ccccc4)CC3)ccc12	inactive	–
CC12CCC3c4ccc(OC(=O)N(CCCl)CCCl)cc4CCC3C1CCC2O (stereo not given)	inconclusive [activator, single point]	–
CCC(c1nnnn1-c1ccc(OC)cc1)N1CCC2(CC1)C(=O)NCN2c1ccccc1 (stereo not given)	inconclusive [activator, single point]	–
O=c1[nH]c2ccccc2n1C1CCN(C(c2ccnc3ccccc23)c2nnnn2-c2ccc3c(c2)OCCO3)CC1 (stereo not given)	inconclusive [activator, single point]	–
COC(=O)C1=C(c2ccc(OC(F)(F)F)cc2)C[C@@H]2CC[C@H]1N2C(=O)N1CCCCC1	inactive	–
